According to PubChem BioAssay AID624202 (National Center for Advancing Translational Sciences (NCATS), 2012):
In all, about 380,000 compounds went through this assay and about 4,000 (1.1%) were called active. This list was built around the results that the source calls inconclusive (neither active nor inactive); the mix of calls is not that of the screen. The call rests on the fitted dose curve; in most records, active means well fitted activation curve with a large enough effect; inconclusive means small, poorly fitted or top-dose-only effect; inactive means no such curve, though single readings can be large or run the other way. Where the call is inconclusive, the potency comes from a doubtful curve fit.

experiment: qHTS Assay to Identify Small Molecule Activators of BRCA1 Expression; conditions: MCF7-BRCA1-FFLuc reporter, luminescence, 48 h; activation: at 46.1 µM (top of the series), scaled: vehicle 0%, 10 µM genistein 100% unless noted; further: nearly all actives have a fitted effect of over 80% in size
Procedure, shortened: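 Quantitative HTS in MCF7 cells stably reporting BRCA1 expression via firefly luciferase. Compound treatment lasts 48 h at 37 °C in phenol-red free MEM. Activation is expressed relative to genistein at 10 microM and DMSO.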
Potency means the concentration at half of the fitted maximal effect; tags describe the fitted curve by direction and shape.

Question: Which Potency does the source give for c1cnc(SCCOc2cccc3ccccc23)nc1 here?
Answer: Its Potency is inconclusive: 14.1 µM [activator, partial curve, poor fit].

Question: With CCCC1CCC(c2ccc(OCC)cc2)=CC1=O (configuration not stated) as the compound, how does the Potency read?
Answer: Its Potency is active: 8.91 µM.

Question: Which Potency does the source give for C=C(C)CSc1nnc(-c2cccc(Cl)c2)n1N here?
Answer: The Potency was active: 12.6 µM.

Question: Which “activation” value does the source give for CCOc1cc(NC(=O)c2ccco2)c(OCC)cc1NC(=O)c1ccco1 here?
Answer: The value was inactive: -5.48%.

Question: With CCC(=O)NC(c1ccc(OC)cc1)c1c(O)ccc2ccccc12 (configuration not stated) as the compound, how does the “activation” value read?
Answer: Its value is inactive: -33.3%.

Question: Which Potency does the source give for CC(C(=O)O)c1ccc(C(=O)c2ccccc2)s1 (configuration not stated) here?
Answer: Its Potency is active: 14.1 µM.

Question: With COc1ccccc1C(=O)N/N=C/C(C)=C/c1ccccc1 as the compound, how does the Potency read?
Answer: Its Potency is inconclusive: 10 µM [activator, partial curve, poor fit].

Question: With Cc1ccc(-n2cc(CN3CCN(Cc4nccn4C)CC3)c(-c3cccc(C)c3)n2)cc1 as the compound, how does the “activation” value read?
Answer: Its value is inactive: 16.1%.

Question: With COC(=O)Cn1c(C)nc2c(sc3nc(C)cc(C)c32)c1=O as the compound, how does the Potency read?
Answer: The Potency was active: 6.31 µM.

Question: For CCOc1ccc(N2C(=O)CC(Sc3nc(-c4cccs4)cc(C(F)(F)F)c3C#N)C2=O)cc1 (configuration not stated), which “activation” value is on record?
Answer: The value was inactive: -17.8%.

Question: For COc1cccc(/C=N/Nc2ccc([N+](=O)[O-])cc2)c1O, which Potency is on record?
Answer: The Potency was inconclusive: 2.51 µM [activator, partial curve, poor fit].

Question: For CCOc1ccc(C(=O)NCC2CCCO2)cc1 (configuration not stated), which Potency is on record?
Answer: The Potency was inconclusive: 22.4 µM [activator, single point].

Question: For COc1ccccc1N1CCN(/N=C/c2cccc(O)c2)CC1, which Potency is on record?
Answer: Its Potency is inconclusive: 12.6 µM [activator, partial curve, poor fit].

Question: For NC(=O)c1ccc(CSc2nc3ccccc3s2)cc1, which Potency is on record?
Answer: The Potency was inconclusive: 12.6 µM [activator, partial curve, poor fit].

Question: Which Potency does the source give for O=C(N/N=C/c1ccc(OCc2ccccc2)cc1)c1cc[n+](Cc2ccccc2)cc1 here?
Answer: The Potency was active: 3.55 µM.

Question: Which Potency does the source give for CCc1ccc(OCc2cccc(C(=O)N/N=C\c3cnn(C)c3C)c2)cc1 here?
Answer: Its Potency is inconclusive: 2.82 µM [activator, partial curve, poor fit].

Question: With COc1cccc(C(=O)Nc2cnn(C(C)C)c2)c1 as the compound, how does the Potency read?
Answer: The Potency was active: 3.55 µM.

Question: With CC(C)(C)c1ccc(CN(Cc2ccccc2)C(c2ccccn2)c2nnnn2C(C)(C)C)cc1 (configuration not stated) as the compound, how does the “activation” value read?
Answer: The value was inactive: -37.8%.

Question: With Cc1c(C)n(CCc2ccccc2)c2ncnc(NCCO)c12 as the compound, how does the Potency read?
Answer: Its Potency is inconclusive: 2.24 µM [activator, partial curve, poor fit].

Question: Which “activation” value does the source give for CC(=O)Nc1ccc2c(c1)Cc1c-2cc(Cl)c(NC(C)=O)c1Cl here?
Answer: Its value is inactive: 14.4%.

Question: For CCOC(=O)C(c1nc2ccccc2[nH]1)n1c(-c2ccccn2)nc2ccccc21 (configuration not stated), which Potency is on record?
Answer: Its Potency is inconclusive: 17.8 µM [activator, single point].

Question: Which Potency does the source give for CC(=O)c1ccc(NC(=O)Nc2ccc3c(c2)nc(C)n3C)cc1 here?
Answer: Its Potency is active: 3.55 µM.

Question: Which Potency does the source give for Cc1nc(SCC(=O)N2CCc3ccccc32)n[nH]1 here?
Answer: The Potency was inconclusive: 20 µM [activator, single point].

Question: Which Potency does the source give for Cc1nc2ccc(NC(=O)Cc3ccsc3)cc2s1 here?
Answer: The Potency was active: 11.2 µM.

Question: For Nc1nc(-c2cc(-c3ccccc3)no2)cs1, which Potency is on record?
Answer: Its Potency is inconclusive: 0.794 µM [activator, full curve, poor fit].

Question: With Cc1nc(NC(=O)c2ccc(Br)s2)sc1C(=O)N(C)C as the compound, how does the Potency read?
Answer: Its Potency is inconclusive: 1.58 µM [activator, full curve, poor fit].

Question: Which “activation” value does the source give for CCN(C(=O)c1ccc(C(C)(C)C)cc1)c1nnc(Cn2nnc3ccccc32)s1 here?
Answer: Its value is inactive: -56.5%.

Question: Which Potency does the source give for COc1ccc(OCc2nc3ccccc3[nH]2)cc1 here?
Answer: The Potency was inconclusive: 3.16 µM [activator, partial curve, poor fit].

Question: Which Potency does the source give for O=C(c1cc2c(=O)n3ccccc3nc2s1)N1CCOCC1 here?
Answer: Its Potency is inconclusive: 2.24 µM [activator, full curve, poor fit].

Question: For Cc1ccc2nc(Cc3ccc(N)cc3)oc2c1, which Potency is on record?
Answer: Its Potency is inconclusive: 31.6 µM [activator, single point].

Question: Which Potency does the source give for N#CCN1CCN(CCC(=O)Nc2ccc(OCc3ccccc3)cc2)CC1 here?
Answer: The Potency was inconclusive: 2.82 µM [activator, partial curve, poor fit].

Question: For CCOC(=O)c1cccc2c1-c1ccccc1/C2=N/O, which “activation” value is on record?
Answer: Its value is inactive: 37.8%.

Question: With Cc1ccsc1C(=O)NCCc1c[nH]c2ccccc12 as the compound, how does the Potency read?
Answer: Its Potency is active: 12.6 µM.

Question: For CCOc1ccc(Nc2cc(C)c3ccccc3n2)cc1, which Potency is on record?
Answer: Its Potency is active: 10 µM.

Question: For COc1ccc2c(c1)Cc1sc(NC(=O)c3ccco3)nc1-2, which Potency is on record?
Answer: Its Potency is inconclusive: 1.26 µM [activator, full curve, poor fit].

Question: Which Potency does the source give for CC(C)C[C@@H](CSc1ccccc1)N1CCN(CC(C)C)CCC1=O here?
Answer: Its Potency is inconclusive: 11.2 µM [activator, partial curve, poor fit].

Question: Which Potency does the source give for CS(=O)(=O)Nc1ccc(C2=NN(S(C)(=O)=O)C(c3ccccc3)C2)cc1 (configuration not stated) here?
Answer: Its Potency is inconclusive: 7.94 µM [activator, partial curve, poor fit].

Question: For COc1ccc(N/C=C/C(=O)c2ccccc2)cc1, which Potency is on record?
Answer: The Potency was inconclusive: 1.26 µM [activator, full curve, poor fit].

Question: Which Potency does the source give for Cc1ocnc1C(=O)Nc1ccc(Cl)cc1 here?
Answer: Its Potency is inconclusive: 8.91 µM [activator, partial curve, poor fit].

Question: With S=C(Nc1ccc2c(c1)OCO2)N1CCN(Cc2ccco2)CC1 as the compound, how does the Potency read?
Answer: Its Potency is active: 3.55 µM.

Question: For CCOC(=O)c1ccc(-c2ccc(/C=N/NC(=O)Cc3nnc(N)s3)o2)cc1, which Potency is on record?
Answer: Its Potency is active: 2.24 µM.

Question: For Cc1ccc(-c2nc(-c3ccncc3)no2)cc1C, which Potency is on record?
Answer: Its Potency is inconclusive: 0.501 µM [activator, full curve, poor fit].

Question: Which activation does the source give for Cc1ccc2nc(NC(=O)c3ccccn3)sc2c1 here?
Answer: Its activation is inconclusive: -93.3% [activator].

Question: For O=C(NCCc1ccccc1)c1nc(-c2cccs2)no1, which Potency is on record?
Answer: Its Potency is inconclusive: 2.24 µM [activator, full curve, poor fit].

Question: Which Potency does the source give for CCOc1ccc(C(=O)CSc2nnc(N)s2)cc1 here?
Answer: Its Potency is inconclusive: 4.47 µM [activator, partial curve, poor fit].

Question: For Cc1ccc(C(=O)CC2(O)C(=O)N(CCc3ccccc3)c3ccc(Br)cc32)o1 (configuration not stated), which “activation” value is on record?
Answer: The value was inactive: -28.2%.

Question: Which Potency does the source give for O=C(Cn1cc(SCc2cccc(Cl)c2)c2ccccc21)N1CCOCC1 here?
Answer: Its Potency is inconclusive: 11.2 µM [activator, partial curve, poor fit].

Question: For O=C(CSC(=S)N1CCOCC1)c1ccccc1, which activation is on record?
Answer: The activation was inconclusive: -42.9% [activator].

Question: Which activation does the source give for CC(C)(C)c1ccc(-c2noc(CCC(N)=O)n2)cc1 here?
Answer: Its activation is inconclusive: -98.2% [activator].

Question: With Cc1cc(/C=C(\C#N)C(=O)NC2CC2)c(C)[nH]1 as the compound, how does the Potency read?
Answer: Its Potency is inconclusive: 2.82 µM [activator, full curve, poor fit].

Question: With Cc1cc(C)c(NC(=O)c2ccc3c(c2)NC(=O)C(C)S3)c(C)c1 (configuration not stated) as the compound, how does the “activation” value read?
Answer: Its value is inactive: -1.55%.

Question: Which Potency does the source give for N/C(=N\OC(=O)CCC1CCCC1)c1ccc(Cl)cc1 here?
Answer: Its Potency is inconclusive: 11.2 µM [activator, partial curve, poor fit].

Question: With O=C(c1cc(COc2cccc(C(F)(F)F)c2)on1)N1CCCC1 as the compound, how does the Potency read?
Answer: The Potency was inconclusive: 28.2 µM [activator, single point].

Question: Which “activation” value does the source give for COc1ccc(Cl)cc1NC(=O)CN(C)CC(=O)Nc1ccc(C)cc1Br here?
Answer: Its value is inactive: -32.6%.

Question: Which Potency does the source give for Cc1nc2sc(-c3ccccc3)nn2c(=O)c1Br here?
Answer: The Potency was inconclusive: 1.58 µM [activator, full curve, poor fit].

Question: For O=C(CCC1CCCN(C(=O)c2cc3ccccc3o2)C1)NCc1ccc(F)c(F)c1 (configuration not stated), which Potency is on record?
Answer: Its Potency is inconclusive: 7.94 µM [activator, partial curve, poor fit].

Question: Which Potency does the source give for COc1ccc(N/C=C2/Sc3ccccc3NC2=O)cc1 here?
Answer: Its Potency is inconclusive: 3.16 µM [activator, full curve, poor fit].

Question: With C/C(=N\Nc1ncc(Cl)cc1Cl)c1ccc2c(c1)OCO2 as the compound, how does the Potency read?
Answer: The Potency was active: 5.62 µM.

Question: Which “activation” value does the source give for CCCN1Cc2cccc(C(=O)N3CCN(c4ccccc4)CC3)c2C1=O here?
Answer: The value was inactive: 0%.

Question: For c1ccc(CSCc2cn3ccccc3n2)cc1, which Potency is on record?
Answer: Its Potency is active: 2.82 µM.

Question: Which Potency does the source give for CSC1=NCCN1C(=O)c1ccc2ccccc2c1 here?
Answer: Its Potency is inconclusive: 35.5 µM [activator, single point].

Question: For Cc1cc(/C=N/Nc2ccc([N+](=O)[O-])cn2)c(C)n1-c1ccccc1, which Potency is on record?
Answer: Its Potency is active: 10 µM.

Question: Which “activation” value does the source give for Cc1cc(C(=O)N/N=C2/CC(C)CC(C)(C)C2)c(C)o1 (configuration not stated) here?
Answer: The value was inactive: -35.7%.

Question: For Cc1ccc(-c2nc3ccc(Cl)cn3c2Cc2ccccc2)cc1, which Potency is on record?
Answer: Its Potency is active: 10 µM.

Question: Which Potency does the source give for COc1cc2sc3cc(NCCCN4CCOCC4)ccc3c(=O)c2cc1OC here?
Answer: Its Potency is inconclusive: 35.5 µM [activator, single point].

Question: Which “activation” value does the source give for Cc1nc(C#N)nc(Oc2ccccc2)c1Cl here?
Answer: Its value is inactive: 0%.

Question: For N/C(=N\OC(=O)CCC1CCCC1)c1ccccn1, which Potency is on record?
Answer: The Potency was active: 7.08 µM.

Question: With Nc1nc(SCc2ccccc2)c2ncn(C3CCCO3)c2n1 (configuration not stated) as the compound, how does the Potency read?
Answer: The Potency was active: 8.91 µM.

Question: For CCCNC(=O)c1cc(C2CCCCN2C(=O)CCCc2ccccc2)on1 (configuration not stated), which Potency is on record?
Answer: Its Potency is inconclusive: 35.5 µM [activator, single point].

Question: Which Potency does the source give for Cc1c(C(=O)Nc2cccc([N+](=O)[O-])c2)csc1-c1ccccc1 here?
Answer: Its Potency is inconclusive: 1.26 µM [activator, full curve, poor fit].

Question: Which Potency does the source give for CC(C)(C)c1ccc(C(=O)N2CCC(C(=O)NCC3CCCO3)CC2)cc1 (configuration not stated) here?
Answer: Its Potency is active: 8.91 µM.

Question: Which Potency does the source give for Cc1nn2c3c(cnc2c1-c1ccccc1)C(=O)CCC3 here?
Answer: Its Potency is active: 12.6 µM.

Question: For Fc1ccccc1NC(=S)NCCc1cccc(Cl)c1, which Potency is on record?
Answer: The Potency was active: 7.94 µM.

Question: For O=C(Nc1ccc(C(=O)N2CCOCC2)cc1)C1CC1, which “activation” value is on record?
Answer: The value was inactive: 23.3%.

Question: For O=C(CC1=NCCNC(c2ccccc2)C1)c1ccccc1O (configuration not stated), which Potency is on record?
Answer: Its Potency is inconclusive: 3.16 µM [activator, partial curve, poor fit].

Question: For Cc1ccc(Nc2ncc3c(n2)CC(C)CC3=O)c(C)c1 (configuration not stated), which Potency is on record?
Answer: The Potency was inconclusive: 14.1 µM [activator, partial curve, poor fit].

Question: With COc1ccc(-n2c(C)cc(C(=O)NC3CCCCC3)c2C)cc1 as the compound, how does the Potency read?
Answer: The Potency was inconclusive: 10 µM [activator, partial curve, poor fit].
